Experimental findings from the supplement of paper PMC12632987 are described below.

The full ranking holds about 4,500 sequences; the median of “median log2 fold change of GCK-ALFA target abundance (FLAG IP / Myc IP barcode read proportion)” is about 0.078, and the lowest 2% start at about -0.6. The list shows a part of the results.

To fix the notation:
B1: GBRAP_160_4824 (protein)
chain: SERVERMEKLIDETAAETIELMAGETAEERAAIAAVEGGQLILELSEDPEFTDELEDTVAAIVDALVAEIRANPDLTDEELRALIERAREAIKEAIRAAF
B2: GBRAP_52_5864 (protein)
chain: MEEEIRAKLEEMLALVKAGKLEEARALARELVASLTEEEVEVLTKVAAELALAAAKADLDAMWKMTELIAEALEEAGFPEELVTLFEDEVGAAIAKVEAA
B3: GBRAP_39_5656 (protein)
chain: EEEEEDELEFSYLIALAVKRQVEEGISDEELIKRGLEKLRELAEEHPEIKELVEELIELAEKGDLETKLAAAGVALLAEEGTPLEEIAEKIKSLIRYLKS
B4: GBRAP_64_6493 (protein)
chain: MEELKKELEEEIEEAIEHLKKAAELSPEKKEEYEELIKKLKEAKELSIEERADVLAEVADRLNELLKEEKDNPETADELGEALDHVSEALYLAFEIEEEE
B5: GBRAP_160_4667 (protein)
chain: EAELAALMASLEEIANEAIEMMEGESHENRVAIARVMGGEIILELEESPLATDEVVDYADELMDELIATIRANPDLTMEEVRALFDEMLAAIRAELEKTL
B6: GBRAP_160_4074 (protein)
chain: SEETEELIEEIEEIAEEAKEFLKESDEENRKAIVRMMAGDILMEVFEAPFISDEDEEEIDEILEEYAEEFEENEDWSMEEKEALIEEMAEKVKEKIKEAA
B7: GBRAP_9_7184 (protein)
chain: TAAAKQAILDNVKEEAELAIEVTPEDKKEEIEKALKKLLEELEALVADPSATLEEILEALEKGAKEIIEIAKETLDEETAKQVEAILNTAILYAEEIVEE
B8: GBRAP_52_5938 (protein)
chain: MEARLQALLDEMIALVKAGDLEGARALAREIVRTLSDEELEAFIDLLAKRAETAAPEDIDYILELAEIVAEELEKEGKEEVLADDLLARVSAAAYKNLQK
B9: GBRAP_74_6554 (protein)
chain: MEELLRRMEELREAKDGRGLIDLAEENVDKVTPEEAARALMIVATFVVEHGEELSDEELERAMDVIVALELKIPNELITDELADAIARAVALAVEREKEL
B10: GBRAP_52_6176 (protein)
chain: MRERMRALVEEIVALAKAGDEEGARAKIRELAETLNDEELRIFAEEFARLVRESPVEDLDLLADLLDLIEDIFEEEGVDPRIISYIYGEFATAAYERELA
B11: GBRAP_160_4264 (protein)
chain: SPEVEKLIKDAEKSRDEILALIDEITPEEARTMAVVEAGSILMEAIELGAVTDEEEDEAMEIIDELEEELEANKDAPPEVHKAIITEHYDKLIELLKKAK
B12: GBRAP_78_6737 (protein)
chain: EVEELLDEALKKLNEAARLAQKFPLEEQTEILDLLIDAATLIWEAEEKGFDLKLLEEALKKLEEALKLVKKLKTPEAEKLAKELEEAIKLVKKAIKLVKK
B13: GBRAP_160_4799 (protein)
chain: SERVQRVADLFREAAERALEMAEGETHEERVNIFDVELGSAIMEAIEEGLLNDEEEDVALEVRDELIAELRANPDLTPEEIAALAARAVERLRERLEKLA
B14: GBRAP_52_5879 (protein)
chain: ELEKAIELLKKAIEAMKKGDEEKAEKILKEIVEKFSEEVIVKAVEKLAEEIKGKSLEEAEAFFKTAELLAEILLEKGGSEEVASLIEALAGAALYEVEQK
B15: GBRAP_52_6218 (protein)
chain: AAARAKAAAEAIVATAKTEGVEAATALLVQLAKELSPEEFRAVLEALVELAKKESAELAEALLDALLAAEDALIAAGVPEADVSDAIAALATVAVEKRAA
B16: GBRAP_160_4239 (protein)
chain: SPELEELRREIEEEVELLVEALLEVPPSQWEAIARAYAGNIVQLVIENPNATDEMEEAVAKEADEMVARLVAARDASPEEIRALGREGAERIVQTVEELS
B17: GBRAP_150_3928 (protein)
chain: SLETLETLVDTLVDYLEAIAEGHLELVPHALKLAKDALEEAEELPEEYKKPVKELLKKIIEKLEKILAGAPEEERKKLIKEALELAKELKKLVEELKKKE
B18: GBRAP_160_4564 (protein)
chain: MEKAKKLVEDLRKDVEKTLEETKDDSIEELRVALSGTIGSHAMEMAEDPRFSDEMVDVLLQARDEIDAYLKENKDASYEEIKAAVMAIVDAAGEKILALA
B19: GBRAP_80_6817 (protein)
chain: MEEEIEKYLEEIREIDPELAEIVEEAVKIAKELGVPLELIARYVKAIAELAKLDLEKAREIAERLLKELKKYKEEGDKEGAYAEIVDATSEALLEVEKLE
B20: GBRAP_83_6970 (protein)
chain: MEKVDVVTTPDHVEEAAEAARDLAEEEGYEVTVILVGSPEEVLKSAEIVAEKLKDIKNVSIRAAVRGVRKEEAEKTKKKLEEIGKKYGLKVEFDAELIEE
B21: GBRAP_160_4673 (protein)
chain: MEEVEKLKKEIEKILKEALEFMRGESLEERVAVAESMKGDIVLLLEESPVVSEEAIEKADKIGDELVAWIRAHPDITDEELEKQLEKALKEIFKVLDELT
B22: GBRAP_14_3822 (protein)
chain: MEEIEKAIEEGYEELAEELSEIAPEKAEEIRELVERQREEVLARIKETGDPVAAVREGREKLLEELDALLADEPPETRATALAEADIETAELEEEVDELL
B23: GBRAP_48_5829 (protein)
chain: MVKDLEKLKKLVEETVEEMKELYEEAKEEGLSDEDILRMIRAELGDLALELEEEGYTKAADYLLEPENREATAEKLKALFDAGKYEEAKEYLLKKLLEAE
B24: GBRAP_160_4732 (protein)
chain: SERIKKFAEEARKIFLEAVEWSKDESKEEAAALFEGAAGEVLMDVMSDPNFTDEQEDKAAEILDELVERLKENWDASVEEKKKIVEEMTERLLEELLKIK
B25: GBRAP_184_5177 (protein)
chain: MIEEFTIKVKDVEETRAKMEEVKEAVKGKKAELYLIVEAEEFTVEMVEALMEILKEMKEEGYVTKITVHLDGKVSEEVVDVAVKLAKEAGINLVIALDEE
B26: GBRAP_52_6128 (protein)
chain: MREEAERLVEELLRLVKEGKEEEARKLAREIVETKDDEFLKLIAEELARRAKEASPEEAELIERAAEILAEEIEKAGRDEVLADYVESTIAAALYENEQA
B27: GBRAP_128_3298 (protein)
chain: SAAALRARYRARVRALKSLTPEELRAATLALIAEAAALGLEAVEILAEVLEELLPEFTVEQLHAIADALAEAAKTATPEERAVLADAENDALLEAEEKEE
B28: GBRAP_160_4260 (protein)
chain: SEELEELIEDVEEDREEILSLVDEISAEEVRTFAVVELGSHLLEAIELEIVTDEEEEELAEIIDDLEERLTAAENASKEEIKAIITESYDKFIEILKKAK
B29: GBRAP_186_5366 (protein)
chain: SEEAEKKIEEIIDEAAKEGWLILGVLEVEELTEESLERIKRELEAGAEFSAEFGYKVAVIIKTTVSEEEFEKLKKKVEEEKKRLEKETGADIKVTIIHEE

Chain of GABARAP, O95166 (O95166 whole entry, the tested form may be a part): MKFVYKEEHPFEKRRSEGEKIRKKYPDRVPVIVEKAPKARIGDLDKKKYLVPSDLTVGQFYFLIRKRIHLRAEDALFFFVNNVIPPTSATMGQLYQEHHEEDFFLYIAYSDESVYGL

This assay deals with GABARAP, O95166. The assay can be described thus: median log2 fold change of GCK-ALFA target abundance (FLAG IP / Myc IP barcode read proportion) (log2 ratio); each designed protein is fused to an ALFA-tag nanobody in HEK293 cells to bring the named protein to FLAG-tagged glucokinase (GCK); Myc marks an untargeted standard; higher = target protein stabilised (more abundant). As to conditions: target protein: 3xFLAG-MCP-GCK-ALFA reporter; HEK293 landing pad (RPLP). In short, it runs like this:
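An ALFA-nanobody-fused binder library was recombined into HEK293 landing-pad cells and induced with 2 μg mL^−1 doxycycline. Cells were transfected with a plasmid expressing a FLAG-tagged target and a Myc-tagged standard. After 48 h, lysates underwent anti-FLAG and anti-Myc immunoprecipitation, and circular RNA barcodes were reverse transcribed, amplified and sequenced. Target abundance is the per-binder median log2 ratio of FLAG to Myc barcode read proportions. Barcodes needed ≥10^−7 proportion in both replicates, binders ≥3 barcodes per replicate, and a 10^−6 pseudocount was added; the two replicates were pooled.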
As for B1, the “median log2 fold change” value was found to be 0.261.
As for B2, the “median log2 fold change” value was found to be 0.192.
As for B3, the figure is 0.0702; as for B4, -0.258.
As for B5, the figure is -0.576; as for B6, -0.279.
As for B7, the figure is 0.252.
Consider B8, for which the “median log2 fold change” value was 0.0871.
The figure for B9 is 0.0897; for B10 it is -0.213.
As for B11, the figure is -0.119; as for B12, 0.171.
The figure for B13 is 0.00686; for B14 it is 0.0689; for B15 it is 0.152.
B16: the “median log2 fold change” value was found to be 0.18.
The figure for B17 is 0.306.
On to B18, for which the “median log2 fold change” value came to 0.22.
As for B19, the figure is 0.039.
The figure for B20 is 0.197.
The figure for B21 is -0.132.
For the molecule B22, the “median log2 fold change” value was -0.171.
In the case of B23, the “median log2 fold change” value is -0.112.
Regarding B24, the “median log2 fold change” value was -0.148.
The figure for B25 is -0.117.
The figure for B26 is 0.391; for B27 it is 0.00236; for B28 it is -0.472.
The figure for B29 is 0.0165.
